According to the supplement of paper PMC5499739:
The full ranking holds about 16,000 sequences; the median of “Z-score” is about -0.37, and the highest 2% start at about 3.2. The list shows a part of the results.

Tested on: RBM10 RRM1-ZnF (GST-tagged construct)
Assay: RNAcompete 7-mer binding Z-score; higher = stronger binding preference
Outline: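 GST-tagged RBM10 constructs (20 pmol) and a designed pool of 241 399 RNAs up to 41 nt (1.5 nmol) were allowed to bind for 30 min at 4°C in 1 ml Hepes pH 7.8 buffer with glutathione Sepharose beads. After four 2-min washes at 4°C, bound RNA was identified by microarray hybridisation. Enrichment was scored per heptamer motif as a one-sided Z-score across the probes containing it.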

Sequence	RNAcompete 7-mer binding Z-score
ACAAGCU	-0.746
UCGGUCA	-0.347
CGCCUCG	-0.522
CGCUUCG	-0.724
GUAAGGA	2.67
GCGAUGG	2.03
CGAUUCU	-0.746
CACUGAU	-0.477
AGCUCUA	-0.629
UUGGCGG	1.51
UGCUAGU	-0.418
AAGAGUG	1.46
CCCCGAA	-0.49
UAAUCUC	-0.847
UUUUCGG	-0.214
UUGGAGA	1.21
GCUAAUG	0.017
UGGAUAC	1.66
AUUCGUU	-0.62
GUGCGGC	0.897
UCCCAAG	-0.607
AUUUGCC	-0.867
GCGCUUC	-0.516

Sequence	RNAcompete 7-mer binding Z-score
UCCGGCC	-0.811
GUUACCG	-0.0999
CCGGUAA	-0.0642
CCACCGG	-0.113
AAUUGGG	2.54
UAGUGAA	0.563
UGCGUUC	-0.633
GUAGCCC	-0.282
UACACUC	-0.548
ACGACUG	-0.136
AGGACUG	0.521
AUCUUGG	-0.227
UCGGAGU	0.131
GUUCAUU	-0.47
GAGUACU	-0.246
UGGUUUU	1.08
UUGCCAG	-0.5
CGCCCAG	-0.451
GAGCUUC	-0.681
UCCCGCG	-0.591
CCCUCGG	-0.0967
AGCCCGU	-0.779
GAACAAA	-0.233

Sequence	RNAcompete 7-mer binding Z-score
AUAUGGA	1.85
CCCGAGA	-0.516
CAGGAGA	1.93
GCACUUG	-0.227
ACCAAAG	-0.37
AUGUGAC	0.0463
CGUAAGA	-0.542
CUCGAUG	-0.402
GAGGCCA	-0.0577
CACGCGU	-0.318
AUUCGCU	-0.805
GGCUACC	-0.188
CUACAAA	-0.516
GAACCGC	-0.574
CAGCUUA	-0.707
UGAUGAA	0.423
CCCACAC	-0.548
GUUCUAG	-0.23
CUGGUCU	-0.347
CUUAAGC	-0.841
GGCGAUU	0.131
CUGUGAC	-0.428
GCAUAGG	1.8

Sequence	RNAcompete 7-mer binding Z-score
UUGGUUA	0.615
UCCUGUU	-0.815
CCUAGUG	-0.266
AAGCCAC	-0.522
CCUUGUC	-0.756
UGCUCGC	-0.493
GAGAUUC	-0.311
GCCGCAU	-0.642
AUCAUCA	-0.5
AGUGGGC	2.67
CCGAAUU	-0.815
UGGGAAG	4.03
AUUGCGC	-0.578
CGUCAAU	-0.73
GUGAUUA	0.352
CUACAGA	-0.636
AGUGUGG	2.95
CACACCC	-0.5
UUCUAUU	-0.737
CGGAAUG	1.27
GUGGCUG	1.05
UCGAGUC	-0.513
UCCUGGG	0.498

Sequence	RNAcompete 7-mer binding Z-score
UCUGUCC	-0.795
UCCGUUC	-0.694
CCAGUUG	-0.513
GAAGGGA	4.52
AGUGGGU	3.49
GGUUGAC	1.2
CCUACAA	-0.724
AAGCUCC	-0.646
CUAUAGA	-0.496
CGUGCUG	-0.149
UCCUUAA	-0.815
AGGCUAG	0.527
AGCUGAU	-0.0642
UAAUAGU	-0.256
UCGUUAA	-0.629
GCAAUUC	-0.62
UACCGCU	-0.782
GAUGGUA	2.28
GUGGGUC	2.36
UUACGAA	-0.561
UACAGGC	0.173
AGGCAUG	0.774
UAAAAUC	-0.678

Sequence	RNAcompete 7-mer binding Z-score
GGUGAUG	2.87
UUUCUUG	-0.707
UCCUAGC	-0.753
CAAGAUA	-0.578
GACAGCA	-0.00896
CGUGGAC	1.09
AACUAGC	-0.477
AUUUUUG	-0.604
GAACUUG	-0.275
GAGGAAA	2.27
UUCUCAC	-0.769
CCCGCUU	-0.659
CGAUUGA	-0.233
AUUUAUU	-0.698
CUGGACU	-0.383
AAACCUA	-0.746
ACAGAUU	-0.363
UCGCAAA	-0.698
AUUGAAG	0.222
AUUUUUC	-0.818
GAUGAAU	0.803
CUCCCUU	-0.753
AGACGUA	-0.207

Sequence	RNAcompete 7-mer binding Z-score
AAUACUA	-0.626
UCCAGGA	0.192
UUAGUAC	-0.477
GACUUGC	-0.821
AGCAGUU	-0.227
GGUCAUU	-0.136
AUGAUUU	-0.681
AUCUACC	-0.824
GGAUCUA	-0.0382
AGUCGCC	-0.36
UCACAAC	-0.568
GCGGAGU	1.4
CUAUACA	-0.571
ACCAGUA	-0.542
UGCUAGC	-0.431
GUAUGAC	0.283
AGGAUUA	0.735
AAGGGAA	4.37
CAGAAAA	-0.197
AAGGGGC	3.13
GACCCCU	-0.704
GCUUCAA	-0.529
CCCGCUG	-0.295

Sequence	RNAcompete 7-mer binding Z-score
GACAUGC	-0.353
GGAGGCU	1.41
CCUCUGG	-0.305
UCAGGUU	0.41
AUGGGUU	2.89
ACAGGGC	1.84
GGGCAAA	1.62
GAUCCAC	-0.704
AGCUCCA	-0.545
GCGAGAA	0.413
CGUCCUC	-0.694
CCCAACA	-0.496
UGUCAAC	-0.552
ACUCGAA	-0.539
CCGCUGC	-0.22
GCACGCG	0.313
GCCGUUG	-0.305
CGCCAUG	-0.35
CUAAGUC	-0.613
UCCCUAU	-0.743
AGAUGAC	-0.0902
CGUGAAC	-0.301
